This note sets out measurements from publication PMC4336329 (PLoS ONE, 2015).

Each structure is given as a SMILES string. The campaign covered roughly 310,000 compounds. About 2,200 (0.71%) showed an effect of 50% or more. The effect is printed as a negative number. The list shows a part of the results.

For the test, the target named is human ether-à-go-go-related gene (hERG) potassium channel (human, UniProt Q12809). Put plainly: primary screen, population patch clamp on CHO cells stably expressing hERG.
Chain of human ether-à-go-go-related gene (hERG) potassium channel (Q12809 whole entry, looked up): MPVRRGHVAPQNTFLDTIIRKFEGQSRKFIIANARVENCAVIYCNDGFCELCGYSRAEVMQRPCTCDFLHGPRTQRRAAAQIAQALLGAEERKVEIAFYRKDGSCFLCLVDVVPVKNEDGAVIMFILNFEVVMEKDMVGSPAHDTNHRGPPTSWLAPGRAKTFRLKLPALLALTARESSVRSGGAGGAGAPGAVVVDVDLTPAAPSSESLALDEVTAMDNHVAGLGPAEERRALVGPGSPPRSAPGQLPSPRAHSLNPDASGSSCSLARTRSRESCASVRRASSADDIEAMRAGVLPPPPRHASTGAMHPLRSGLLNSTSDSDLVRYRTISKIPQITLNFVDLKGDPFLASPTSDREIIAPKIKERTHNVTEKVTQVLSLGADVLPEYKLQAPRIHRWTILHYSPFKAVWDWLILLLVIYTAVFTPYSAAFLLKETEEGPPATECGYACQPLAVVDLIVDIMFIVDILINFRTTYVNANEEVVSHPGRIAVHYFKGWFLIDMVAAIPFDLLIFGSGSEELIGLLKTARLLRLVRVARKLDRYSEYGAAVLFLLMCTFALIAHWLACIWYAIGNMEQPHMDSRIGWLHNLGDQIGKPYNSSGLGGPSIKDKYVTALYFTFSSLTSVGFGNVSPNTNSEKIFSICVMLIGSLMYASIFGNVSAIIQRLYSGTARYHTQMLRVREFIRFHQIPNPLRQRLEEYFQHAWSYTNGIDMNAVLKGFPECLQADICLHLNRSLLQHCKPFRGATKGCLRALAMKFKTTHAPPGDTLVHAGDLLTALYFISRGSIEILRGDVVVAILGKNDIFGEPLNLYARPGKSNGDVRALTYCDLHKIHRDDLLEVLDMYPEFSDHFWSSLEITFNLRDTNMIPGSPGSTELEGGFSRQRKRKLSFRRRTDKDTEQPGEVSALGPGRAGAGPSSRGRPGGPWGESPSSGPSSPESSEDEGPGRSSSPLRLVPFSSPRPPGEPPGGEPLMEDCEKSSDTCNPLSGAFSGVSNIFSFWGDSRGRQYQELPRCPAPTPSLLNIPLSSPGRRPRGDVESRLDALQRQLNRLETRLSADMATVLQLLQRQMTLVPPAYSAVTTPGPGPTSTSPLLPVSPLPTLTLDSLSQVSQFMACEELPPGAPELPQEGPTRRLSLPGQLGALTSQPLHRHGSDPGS
As to `Cc1nn(-c2ccccc2)c(Cl)c1/C=N\NC(=O)c1cncc(Br)c1`, the “hERG current change (%, negative = inhibition) at 1uM” value amounted to 5%.

For `COc1ccc(Sc2nc3ccccc3n3c(C(F)(F)F)nnc23)cc1`, the “hERG current change (%, negative = inhibition) at 1uM” value turned out to be 12.8%.

Turning to `O=C(NCc1nc2ccccc2[nH]1)C1=C[C@H](C2CC2)C[C@H](OCCCCO)O1`, the “hERG current change (%, negative = inhibition) at 1uM” value was determined as 2.86%.

As for `Cc1cc(C)c(S(=O)(=O)N2CCN(c3ccc([N+](=O)[O-])c(NCC4CCCO4)c3)CC2)c(C)c1` (stereo not shown), the “hERG current change (%, negative = inhibition) at 1uM” value is 21.8%.

On to `CC(C)CN=C(NS(=O)(=O)c1ccccc1)C(Cl)(Cl)Cl`, for which the “hERG current change (%, negative = inhibition) at 1uM” value came to 12.7%.

On to `CN(CCC1CCOCC1)C(=O)CC1C(=O)NCCN1Cc1cccc(F)c1` (stereo not shown), for which the “hERG current change (%, negative = inhibition) at 1uM” value was found to be 2.8%.

`CCN(CC)CCC(=O)N1c2ccccc2CCc2ccc(NC(=O)OC(C)C)cc21`: the “hERG current change (%, negative = inhibition) at 1uM” value was -5.39%.

With `COc1ccc(OCCSc2nc(N)cc(=O)[nH]2)cc1`, the “hERG current change (%, negative = inhibition) at 1uM” value is listed as 2.03%.

On to `COc1ccc(OC)c(NC(=O)c2cc3ccccc3cc2OC)c1`, for which the “hERG current change (%, negative = inhibition) at 1uM” value amounted to 4.18%.

Regarding `CCn1c(SCC(=O)c2cccs2)nnc1-c1ccco1`, the “hERG current change (%, negative = inhibition) at 1uM” value was 10.3%.

`CC(C)(C)NCCOc1ccc(Br)cc1.Cl`: the “hERG current change (%, negative = inhibition) at 1uM” value was found to be 6.12%.

`c1ccc(-c2cc(CSc3nc4ccccc4[nH]3)on2)cc1`: the “hERG current change (%, negative = inhibition) at 1uM” value came to 13.3%.

For `CC1(C)CC(=O)C=C(NCCN2CCN(C(=S)Nc3ccc(F)cc3)CC2)C1`, the “hERG current change (%, negative = inhibition) at 1uM” value is 10.3%.

In the case of `O=C(Nc1ccc(Cl)cc1)c1sccc1-n1cccc1`, the “hERG current change (%, negative = inhibition) at 1uM” value stood at 5.81%.

In the case of `Cn1c(CNC(=O)c2ccccc2F)nnc1SCC(=O)Nc1nncs1`, the “hERG current change (%, negative = inhibition) at 1uM” value is 8.22%.

With `CCc1ccc2c(c1)/C(=N/N(C)C(=S)NC)C(=O)N2`, the “hERG current change (%, negative = inhibition) at 1uM” value stood at 7.89%.

On to `COc1ccc(S(=O)(=O)N(CC(=O)NC2CCCC2)c2ccccc2OC)cc1`, for which the “hERG current change (%, negative = inhibition) at 1uM” value was 11%.

As to `COc1cc(/C=C2\N=C(C)OC2=O)cc(Cl)c1OC(C)=O`, the “hERG current change (%, negative = inhibition) at 1uM” value came to 15.9%.

With `Cc1ccc(C)c(-n2cc[nH]c2=S)c1`, the “hERG current change (%, negative = inhibition) at 1uM” value was 11%.

`Cc1ccc(NC(=O)CN(c2ccc(Cl)cc2)S(=O)(=O)c2cc([N+](=O)[O-])ccc2Cl)cc1`: the “hERG current change (%, negative = inhibition) at 1uM” value came out at 7.07%.

With `CCOC(=O)Cn1c(=O)c2c(nc(N3CCCCC3)n2Cc2ccccc2)n(C)c1=O`, the “hERG current change (%, negative = inhibition) at 1uM” value came to 0.644%.

In the case of `COc1cc(C=O)ccc1OCC(=O)Nc1ccccc1N1CCOCC1`, the “hERG current change (%, negative = inhibition) at 1uM” value came out at 20%.

Take `Cc1nccn1CCCNC(=O)C1CCC(=O)N(Cc2ccccc2F)C1` (stereo not shown): the “hERG current change (%, negative = inhibition) at 1uM” value worked out at 9.89%.

For `CCOC(=O)CCC(=O)N1CCOCCOCCN(C(=O)CCC(=O)OCC)CCOCC1`, the “hERG current change (%, negative = inhibition) at 1uM” value stood at 5.29%.

For the molecule `CCOc1ccccc1CNC(=O)c1c([N+](=O)[O-])c(C)nn1C`, the “hERG current change (%, negative = inhibition) at 1uM” value came out at 0.0727%.

`COc1ccccc1NC(=O)CNC(=O)Cn1c(C)cc2ccccc2c1=O`: the “hERG current change (%, negative = inhibition) at 1uM” value is given as 14.1%.

On to `COc1ccc(/C=N/NC(=O)c2nn(-c3ccccc3)c(=O)c3c(N)scc23)cc1`, for which the “hERG current change (%, negative = inhibition) at 1uM” value came out at 4.99%.

As for `c1ccc(N2CCN(CC3CCCCC3)CC2)cc1`, the “hERG current change (%, negative = inhibition) at 1uM” value is 15.4%.

As for `O=C(NCc1ccccc1)C(c1ccccc1)N(C(=O)c1csnn1)c1ccc(F)cc1` (stereo not shown), the “hERG current change (%, negative = inhibition) at 1uM” value is 9.78%.

Regarding `COC(=O)c1sc(=S)n(-c2ccccc2)c1N`, the “hERG current change (%, negative = inhibition) at 1uM” value is listed as 6.66%.

Regarding `COc1ccc(Cc2nnc(NC(=O)c3cccs3)s2)cc1OC`, the “hERG current change (%, negative = inhibition) at 1uM” value was found to be 2.14%.

For `COc1ccc(/C(N)=N/OC(=O)CSc2ccccc2)cc1`, the “hERG current change (%, negative = inhibition) at 1uM” value turned out to be 5.01%.

On to `CC(C)c1ccc(NC2CCCN(C(=O)c3cscn3)C2)cc1` (stereo not shown), for which the “hERG current change (%, negative = inhibition) at 1uM” value was 12.1%.

For the molecule `CC(=O)N1CCN(C(=O)C2(NC(=O)Nc3cccc(F)c3)CCCCC2)CC1`, the “hERG current change (%, negative = inhibition) at 1uM” value came out at 15%.

With `CSCCC(NC(=O)c1ccccc1Cl)C(=O)NNC(=O)c1ccncc1` (stereo not shown), the “hERG current change (%, negative = inhibition) at 1uM” value was -7.14%.

For the molecule `COc1cccc(CN2CCC(C(=O)N3CCN(c4ccccc4F)CC3)CC2)c1`, the “hERG current change (%, negative = inhibition) at 1uM” value is on record as -20.8%.

With `Cc1nnc(SCc2ccc(CC(=O)O)cc2)o1`, the “hERG current change (%, negative = inhibition) at 1uM” value was 6.6%.

Take `Fc1cc(Br)ccc1NC(=S)NCCc1ccccc1`: the “hERG current change (%, negative = inhibition) at 1uM” value worked out at 4.19%.

Take `COc1ccc(-c2csc(N3CCC(C(N)=O)(N4CCCCC4)CC3)n2)cc1`: the “hERG current change (%, negative = inhibition) at 1uM” value amounted to 5.58%.

In the case of `N=c1c(C(=O)NCC2CCCO2)cc2c(=O)n3ccccc3nc2n1Cc1cccnc1` (stereo not shown), the “hERG current change (%, negative = inhibition) at 1uM” value is -34.7%.

On to `COC(OC)C1(C)C(C#N)=C(N)Oc2c1c(=O)oc1ccccc21` (stereo not shown), for which the “hERG current change (%, negative = inhibition) at 1uM” value is recorded as 8.87%.

As for `CCc1nnc(SCC(=O)Nc2nccs2)n1CC`, the “hERG current change (%, negative = inhibition) at 1uM” value was found to be 12.4%.

Regarding `CC1=C(C(=O)OCc2ccccc2)C(c2ccccc2)NC(=O)N1CCCCCC(=O)O` (stereo not shown), the “hERG current change (%, negative = inhibition) at 1uM” value came out at 8.36%.

`Cc1ccc(N2CCN(C(=O)Nc3cccc([N+](=O)[O-])c3)CC2C)cc1` (stereo not shown): the “hERG current change (%, negative = inhibition) at 1uM” value is 5.32%.

Consider `Cc1coc2c1c(C)cc1oc(=O)c(Cc3ccccc3)c(C)c12`, for which the “hERG current change (%, negative = inhibition) at 1uM” value is on record as 15%.

On to `COc1ccc(NC(=O)c2ccco2)cn1`, for which the “hERG current change (%, negative = inhibition) at 1uM” value worked out at 17.8%.

For the molecule `Cc1cc(NC(=O)c2ccc(C)c(C)c2)no1`, the “hERG current change (%, negative = inhibition) at 1uM” value came to 11%.

Regarding `CC1(C)CC(=O)N(CC(=O)O)c2ccccc2S1(=O)=O`, the “hERG current change (%, negative = inhibition) at 1uM” value was found to be 2.76%.

Take `O=C(CNS(=O)(=O)c1cccc(C(F)(F)F)c1)Nc1ccccc1F`: the “hERG current change (%, negative = inhibition) at 1uM” value was -2.49%.

For the molecule `COc1ccc(CN2CCN(Cc3cn(C)nc3-c3ccccc3)CC2CCO)c(C)c1C` (stereo not shown), the “hERG current change (%, negative = inhibition) at 1uM” value is reported as -34.3%.

`CCn1c(-c2ccccc2Cl)nn(CC(=O)Nc2ccccc2C)c1=S`: the “hERG current change (%, negative = inhibition) at 1uM” value was 3.39%.

In the case of `CCS(=O)(=O)C(=C(Nc1ccc(OC)cc1)Nc1ccc(OC)cc1)S(=O)(=O)CC`, the “hERG current change (%, negative = inhibition) at 1uM” value turned out to be 5.46%.

With `O=S(=O)(NCCc1ccccc1)c1ccc(F)cc1`, the “hERG current change (%, negative = inhibition) at 1uM” value is reported as 4.42%.

On to `c1ccc(Sc2ncnc3c2oc2ccccc23)cc1`, for which the “hERG current change (%, negative = inhibition) at 1uM” value is given as 20.2%.

On to `NC(=O)C1CC(=O)N(c2ccc(OCc3c(Cl)cccc3Cl)cc2)C1` (stereo not shown), for which the “hERG current change (%, negative = inhibition) at 1uM” value is 19.2%.

Turning to `OCCC1CN(Cc2ccc3cc(Cl)ccc3n2)CCN1Cc1ccsc1` (stereo not shown), the “hERG current change (%, negative = inhibition) at 1uM” value is reported as -42.1%.

Consider `CCOc1ccc(C(=O)CCC(=O)Nc2ccc(C)cn2)cc1`, for which the “hERG current change (%, negative = inhibition) at 1uM” value was -5.09%.

Turning to `CCOC(=O)c1ccccc1N/C=C1\CCCC1=O`, the “hERG current change (%, negative = inhibition) at 1uM” value amounted to 5.17%.
